Test results from PMC5062570 (Nature Communications, 2016).

Experiments:
[1] = target: PF-7802-labelled proteins in ARPE-19 cells (Homo sapiens, UniProt O00159); conditions: for Median SILAC Ratio (Heavy/Light): protein MYO1C Unconventional myosin-Ic (O00159), replicates in separate columns
[2] = target: PF-7802-labelled proteins in ARPE-19 cells (Homo sapiens, UniProt P02786)
[3] = target: PF-7802-labelled proteins in ARPE-19 cells (Homo sapiens, UniProt P08559); conditions: protein PDHA1 Pyruvate dehydrogenase E1 component subunit alpha, somatic form, mitochondrial (P08559); replicates in separate columns
[4] = target: PF-7802-labelled proteins in ARPE-19 cells (Homo sapiens, UniProt P08962); conditions: protein CD63 CD63 antigen (P08962)
UniProt P08962, sequence (P08962 whole entry): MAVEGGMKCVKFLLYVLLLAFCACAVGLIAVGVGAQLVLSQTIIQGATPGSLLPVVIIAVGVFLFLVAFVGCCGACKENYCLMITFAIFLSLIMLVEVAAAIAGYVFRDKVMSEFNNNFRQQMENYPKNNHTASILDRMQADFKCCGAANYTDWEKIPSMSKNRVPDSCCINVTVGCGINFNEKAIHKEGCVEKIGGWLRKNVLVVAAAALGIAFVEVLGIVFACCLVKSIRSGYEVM

[5] = target: PF-7802-labelled proteins in ARPE-19 cells (Homo sapiens, UniProt P14678); conditions: SNRPB Small nuclear ribonucleoprotein-associated proteins B and B' (P14678)
[6] = target: T1, PF-7802-labelled proteins in ARPE-19 cells (Homo sapiens, UniProt P35221); conditions: for Median SILAC Ratio (Heavy/Light): protein CTNNA1 Catenin alpha-1 (P35221)
T1 sequence (P35221 1-906): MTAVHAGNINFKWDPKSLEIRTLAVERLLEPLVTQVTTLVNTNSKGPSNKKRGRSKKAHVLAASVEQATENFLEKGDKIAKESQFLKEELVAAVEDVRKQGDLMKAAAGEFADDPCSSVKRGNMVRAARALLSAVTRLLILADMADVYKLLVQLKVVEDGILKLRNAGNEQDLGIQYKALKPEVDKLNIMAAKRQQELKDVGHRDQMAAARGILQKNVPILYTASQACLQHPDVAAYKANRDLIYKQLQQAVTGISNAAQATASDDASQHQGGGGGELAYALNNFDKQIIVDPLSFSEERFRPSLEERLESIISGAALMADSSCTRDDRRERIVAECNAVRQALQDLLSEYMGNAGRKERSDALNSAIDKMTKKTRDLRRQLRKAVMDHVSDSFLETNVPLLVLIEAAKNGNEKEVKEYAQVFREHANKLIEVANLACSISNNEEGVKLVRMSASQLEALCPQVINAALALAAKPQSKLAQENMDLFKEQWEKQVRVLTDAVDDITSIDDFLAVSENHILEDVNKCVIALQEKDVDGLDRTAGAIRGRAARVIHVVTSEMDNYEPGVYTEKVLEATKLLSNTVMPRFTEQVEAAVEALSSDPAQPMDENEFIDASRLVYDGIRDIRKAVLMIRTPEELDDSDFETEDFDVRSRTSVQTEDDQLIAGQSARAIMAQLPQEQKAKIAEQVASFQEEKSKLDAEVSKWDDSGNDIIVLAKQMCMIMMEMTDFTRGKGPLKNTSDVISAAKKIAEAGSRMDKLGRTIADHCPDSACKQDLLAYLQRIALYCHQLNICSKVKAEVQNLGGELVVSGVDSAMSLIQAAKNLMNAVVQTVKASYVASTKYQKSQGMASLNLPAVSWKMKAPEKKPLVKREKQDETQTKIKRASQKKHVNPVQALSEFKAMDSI

[7] = target: PF-7802-labelled proteins in ARPE-19 cells (Homo sapiens, UniProt P42765); conditions: protein ACAA2 3-ketoacyl-CoA thiolase, mitochondrial (P42765)
UniProt P42765, sequence (P42765 whole entry): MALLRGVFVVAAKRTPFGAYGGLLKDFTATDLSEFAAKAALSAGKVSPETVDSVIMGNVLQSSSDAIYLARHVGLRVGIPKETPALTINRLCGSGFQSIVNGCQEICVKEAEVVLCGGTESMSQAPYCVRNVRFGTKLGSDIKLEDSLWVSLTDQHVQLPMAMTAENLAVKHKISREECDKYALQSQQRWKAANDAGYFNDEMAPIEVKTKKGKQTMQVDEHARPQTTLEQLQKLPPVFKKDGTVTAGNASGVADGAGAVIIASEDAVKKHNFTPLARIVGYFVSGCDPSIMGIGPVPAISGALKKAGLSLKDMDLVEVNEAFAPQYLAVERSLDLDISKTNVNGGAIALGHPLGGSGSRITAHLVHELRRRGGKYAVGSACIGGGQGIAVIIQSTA

[8] = target: PF-7802-labelled proteins in ARPE-19 cells (Homo sapiens, UniProt P48047); conditions: protein ATP5O ATP synthase subunit O, mitochondrial (P48047)
[9] = target: T2, PF-7802-labelled proteins in ARPE-19 cells (Homo sapiens, UniProt P50991); conditions: for Median SILAC Ratio (Heavy/Light): protein CCT4 T-complex protein 1 subunit delta (P50991)
T2 sequence (P50991 1-539): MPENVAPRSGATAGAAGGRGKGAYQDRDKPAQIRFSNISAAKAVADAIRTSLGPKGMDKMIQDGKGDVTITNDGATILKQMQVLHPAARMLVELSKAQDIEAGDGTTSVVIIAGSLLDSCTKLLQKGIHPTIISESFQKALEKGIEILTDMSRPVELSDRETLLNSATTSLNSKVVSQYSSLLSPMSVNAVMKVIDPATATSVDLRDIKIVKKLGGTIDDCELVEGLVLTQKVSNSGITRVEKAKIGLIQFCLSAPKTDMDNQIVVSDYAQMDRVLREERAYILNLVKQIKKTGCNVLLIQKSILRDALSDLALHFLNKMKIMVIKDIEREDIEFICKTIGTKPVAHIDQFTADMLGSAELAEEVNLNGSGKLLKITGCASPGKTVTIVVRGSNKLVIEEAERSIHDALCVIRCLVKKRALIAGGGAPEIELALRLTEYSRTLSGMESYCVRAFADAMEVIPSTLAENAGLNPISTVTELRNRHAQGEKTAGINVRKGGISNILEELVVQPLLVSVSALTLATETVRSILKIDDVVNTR

[10] = target: PF-7802-labelled proteins in ARPE-19 cells (Homo sapiens, UniProt P62917); conditions: protein RPL8 60S ribosomal protein L8, P62917
[11] = target: PF-7802-labelled proteins in ARPE-19 cells (Homo sapiens, UniProt Q07666); conditions: protein KHDRBS1 KH domain-containing, RNA-binding, signal transduction-associated protein 1 (Q07666); one column per replicate
UniProt Q07666, sequence (Q07666 whole entry, the tested form may be a part): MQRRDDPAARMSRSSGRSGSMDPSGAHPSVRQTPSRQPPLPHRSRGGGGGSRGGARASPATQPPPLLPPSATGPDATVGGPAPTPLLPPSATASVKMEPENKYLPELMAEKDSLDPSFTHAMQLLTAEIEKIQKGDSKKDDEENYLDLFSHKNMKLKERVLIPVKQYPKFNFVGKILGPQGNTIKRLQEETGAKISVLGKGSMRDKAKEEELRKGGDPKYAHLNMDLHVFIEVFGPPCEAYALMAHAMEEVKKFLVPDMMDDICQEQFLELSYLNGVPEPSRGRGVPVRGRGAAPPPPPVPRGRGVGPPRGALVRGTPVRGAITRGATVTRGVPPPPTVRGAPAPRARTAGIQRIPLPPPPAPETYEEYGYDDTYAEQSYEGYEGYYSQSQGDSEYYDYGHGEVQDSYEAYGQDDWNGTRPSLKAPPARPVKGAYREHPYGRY

[12] = target: PF-7802-labelled proteins in ARPE-19 cells (Homo sapiens, UniProt Q16850); conditions: protein CYP51A1 Lanosterol 14-alpha demethylase (Q16850)
UniProt Q16850, sequence (Q16850 whole entry): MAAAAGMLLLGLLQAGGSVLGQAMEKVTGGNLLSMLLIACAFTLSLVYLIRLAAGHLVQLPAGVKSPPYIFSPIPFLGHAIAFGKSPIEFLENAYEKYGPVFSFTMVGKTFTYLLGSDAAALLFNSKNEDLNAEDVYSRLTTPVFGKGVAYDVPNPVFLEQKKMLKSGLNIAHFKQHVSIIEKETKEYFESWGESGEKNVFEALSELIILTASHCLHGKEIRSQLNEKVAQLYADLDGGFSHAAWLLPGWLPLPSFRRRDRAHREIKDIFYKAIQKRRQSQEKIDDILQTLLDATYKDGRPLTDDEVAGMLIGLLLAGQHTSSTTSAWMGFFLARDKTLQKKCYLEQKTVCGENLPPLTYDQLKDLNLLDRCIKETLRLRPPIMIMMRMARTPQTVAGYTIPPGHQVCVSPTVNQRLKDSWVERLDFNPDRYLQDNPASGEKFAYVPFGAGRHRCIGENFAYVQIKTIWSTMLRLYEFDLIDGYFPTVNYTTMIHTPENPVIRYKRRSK

[13] = target: PF-7802-labelled proteins in ARPE-19 cells (Homo sapiens, UniProt Q7Z794); conditions: protein KRT77 Keratin, type II cytoskeletal 1b (Q7Z794); one column per replicate
UniProt Q7Z794, sequence (Q7Z794 whole entry, canonical isoform): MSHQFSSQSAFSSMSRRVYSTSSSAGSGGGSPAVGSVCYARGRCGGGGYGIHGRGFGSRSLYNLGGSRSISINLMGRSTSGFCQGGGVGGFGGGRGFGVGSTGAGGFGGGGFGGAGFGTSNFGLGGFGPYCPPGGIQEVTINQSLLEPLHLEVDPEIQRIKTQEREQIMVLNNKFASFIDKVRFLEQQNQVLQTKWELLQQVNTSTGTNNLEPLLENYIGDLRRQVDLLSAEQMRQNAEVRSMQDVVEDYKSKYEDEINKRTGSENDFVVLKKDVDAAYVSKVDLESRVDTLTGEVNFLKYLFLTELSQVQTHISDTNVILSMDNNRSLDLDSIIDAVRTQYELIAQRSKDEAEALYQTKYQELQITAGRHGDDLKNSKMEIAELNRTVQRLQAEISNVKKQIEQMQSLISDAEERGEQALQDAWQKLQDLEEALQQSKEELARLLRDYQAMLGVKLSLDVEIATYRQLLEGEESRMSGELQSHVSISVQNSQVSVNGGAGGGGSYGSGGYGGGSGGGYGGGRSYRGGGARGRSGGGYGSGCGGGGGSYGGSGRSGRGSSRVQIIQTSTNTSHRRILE

[14] = target: PF-7802-labelled proteins in ARPE-19 cells (Homo sapiens, UniProt Q9UPN3); conditions: for Median SILAC Ratio (Heavy/Light): protein MACF1 Microtubule-actin cross-linking factor 1, isoforms 1/2/3/5 (Q9UPN3), replicates in separate columns
[15] = target: PF-7802-labelled proteins in ARPE-19 cells (Homo sapiens, UniProt Q9Y265); conditions: protein RUVBL1 RuvB-like 1, Q9Y265
UniProt Q9Y265, sequence (Q9Y265 whole entry): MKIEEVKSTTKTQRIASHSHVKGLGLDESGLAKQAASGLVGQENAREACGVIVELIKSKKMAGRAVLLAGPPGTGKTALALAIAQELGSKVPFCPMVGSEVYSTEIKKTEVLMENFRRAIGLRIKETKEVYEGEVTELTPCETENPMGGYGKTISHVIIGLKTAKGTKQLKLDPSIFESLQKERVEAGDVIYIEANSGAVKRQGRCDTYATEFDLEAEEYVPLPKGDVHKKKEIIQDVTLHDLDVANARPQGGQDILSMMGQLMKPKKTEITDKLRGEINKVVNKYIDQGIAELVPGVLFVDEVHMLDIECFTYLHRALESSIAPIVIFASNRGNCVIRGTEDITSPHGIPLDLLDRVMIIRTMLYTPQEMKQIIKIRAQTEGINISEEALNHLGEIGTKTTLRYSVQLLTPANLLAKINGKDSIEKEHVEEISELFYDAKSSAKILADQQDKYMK

UniProt O00159, sequence (O00159 whole entry): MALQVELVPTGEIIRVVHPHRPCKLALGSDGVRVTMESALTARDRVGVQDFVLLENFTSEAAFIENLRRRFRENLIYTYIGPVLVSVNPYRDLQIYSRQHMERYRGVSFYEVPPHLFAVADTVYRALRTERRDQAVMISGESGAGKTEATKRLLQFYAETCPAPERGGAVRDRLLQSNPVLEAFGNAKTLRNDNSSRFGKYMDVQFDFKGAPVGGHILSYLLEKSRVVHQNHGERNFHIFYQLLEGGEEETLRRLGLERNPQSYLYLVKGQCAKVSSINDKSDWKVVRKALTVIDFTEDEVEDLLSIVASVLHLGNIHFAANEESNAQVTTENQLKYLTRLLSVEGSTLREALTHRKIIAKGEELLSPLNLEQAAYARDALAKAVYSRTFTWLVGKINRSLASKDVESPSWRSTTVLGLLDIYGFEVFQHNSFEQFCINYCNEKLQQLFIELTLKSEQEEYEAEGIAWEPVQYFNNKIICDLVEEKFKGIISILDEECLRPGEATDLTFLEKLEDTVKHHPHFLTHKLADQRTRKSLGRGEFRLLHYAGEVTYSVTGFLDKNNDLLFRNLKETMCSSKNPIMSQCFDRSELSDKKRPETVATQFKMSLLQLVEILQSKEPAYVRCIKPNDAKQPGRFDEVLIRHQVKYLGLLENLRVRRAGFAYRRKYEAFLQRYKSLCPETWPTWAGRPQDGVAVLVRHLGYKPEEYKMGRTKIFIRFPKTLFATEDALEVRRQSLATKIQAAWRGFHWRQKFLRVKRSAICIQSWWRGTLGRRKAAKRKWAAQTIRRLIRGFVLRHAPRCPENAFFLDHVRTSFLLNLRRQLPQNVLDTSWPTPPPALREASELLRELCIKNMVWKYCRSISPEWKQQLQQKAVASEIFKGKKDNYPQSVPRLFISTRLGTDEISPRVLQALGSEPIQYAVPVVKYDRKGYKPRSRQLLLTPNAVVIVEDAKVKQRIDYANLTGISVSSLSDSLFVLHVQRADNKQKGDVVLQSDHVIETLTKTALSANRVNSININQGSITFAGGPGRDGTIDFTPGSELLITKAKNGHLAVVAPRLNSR
UniProt P02786, sequence (P02786 whole entry): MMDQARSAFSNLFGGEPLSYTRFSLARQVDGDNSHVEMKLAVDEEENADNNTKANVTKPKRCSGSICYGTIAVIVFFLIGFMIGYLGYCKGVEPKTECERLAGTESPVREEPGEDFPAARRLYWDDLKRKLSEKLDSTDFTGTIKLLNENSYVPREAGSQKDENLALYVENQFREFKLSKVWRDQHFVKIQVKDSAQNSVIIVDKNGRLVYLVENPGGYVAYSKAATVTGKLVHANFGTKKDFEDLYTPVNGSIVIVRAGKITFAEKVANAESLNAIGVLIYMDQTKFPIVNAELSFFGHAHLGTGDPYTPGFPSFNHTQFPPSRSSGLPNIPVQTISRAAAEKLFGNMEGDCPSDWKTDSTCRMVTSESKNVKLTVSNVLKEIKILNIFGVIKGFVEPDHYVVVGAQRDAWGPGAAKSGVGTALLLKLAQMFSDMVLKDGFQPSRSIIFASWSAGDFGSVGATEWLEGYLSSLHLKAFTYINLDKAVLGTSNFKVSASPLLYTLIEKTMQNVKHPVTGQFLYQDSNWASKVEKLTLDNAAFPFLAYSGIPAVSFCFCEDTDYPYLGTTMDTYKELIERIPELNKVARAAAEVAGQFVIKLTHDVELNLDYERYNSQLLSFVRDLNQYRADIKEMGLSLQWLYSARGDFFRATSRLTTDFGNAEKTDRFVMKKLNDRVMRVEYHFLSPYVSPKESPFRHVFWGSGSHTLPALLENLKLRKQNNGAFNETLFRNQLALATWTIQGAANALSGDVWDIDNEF

| Compound | SILAC ratio (DMSO/CP-108671) ([1]; O00159 MYO1C Unconventional myosin-Ic) | Median SILAC Ratio (Heavy/Light) [1] | Median SILAC Ratio (Heavy/Light) ([2]; TFRC Transferrin receptor protein 1 (P02786)) | Median SILAC Ratio (Heavy/Light) [3] | Median SILAC Ratio (Heavy/Light) [4] | Median SILAC Ratio (Heavy/Light) [5] | SILAC ratio (DMSO/CP-108671) ([6]; P35221 CTNNA1 Catenin alpha-1) | Median SILAC Ratio (Heavy/Light) [6] | Median SILAC Ratio (Heavy/Light) [7] | Median SILAC Ratio (Heavy/Light) [8] | SILAC ratio (DMSO/CP-108671) ([9]; P50991 CCT4 T-complex protein 1 subunit delta) | Median SILAC Ratio (Heavy/Light) [9] | Median SILAC Ratio (Heavy/Light) [10] | Median SILAC Ratio (Heavy/Light) [11] | Median SILAC Ratio (Heavy/Light) [12] | Median SILAC Ratio (Heavy/Light) [13] | SILAC ratio (DMSO/CP-108671) ([14]; Q9UPN3 MACF1 Microtubule-actin cross-linking factor 1, isoforms 1/2/3/5) | Median SILAC Ratio (Heavy/Light) [14] | Median SILAC Ratio (Heavy/Light) [15] | Median SILAC Ratio (Heavy/Light) [2] |
| --- | --- | --- | --- | --- | --- | --- | --- | --- | --- | --- | --- | --- | --- | --- | --- | --- | --- | --- | --- | --- |
| CNC1CCN(C(=O)C[C@@H](Cc2ccccc2)C(=O)N[C@@H](CSC)C(=O)N[C@@H](CC2CCCCC2)[C@@H](O)C(=O)OC(C)C)CC1 [CP-108671, reference compound] | 0.86 | 1.165 | 1.623 | 0.9666 | 0.9086 | 1.054 | 0.82 | 1.216 | 1.345 | 0.9626 | 0.76 | 1.314 | 2.162 | 0.9475 | 0.7395 | 76.8053 | 0.79 | 1.273 | 1.491 | – |
| Cc1cc([C@H]2C[C@H]3[C@@H](C)SC(N)=N[C@@]3(c3ccc(F)cc3F)CO2)on1 [PF-9283] | – | 1.3405 and 0.8231 | – | 1.115 | 2.499 and 2.799 | 1.326 | – | 1.389 | 1.484 | 1.211 and 0.9659 | – | 1.377 | 1.999 | 1.129 | 2.762 | 33.4664 and 50.9514 | – | 1.5705 | 1.565 | 1.437 and 0.8521 |

“And” between values parts separate entries of the source, which are not always exact repeats. Identical values can stand only once. Like-named read-outs stand apart in the source and are kept apart here.
